The other results are listed elsewhere or left out. Sequences were assembled here from the parent chain. Inactive controls read about 0.05.
B1: TEV protease; numbered along this chain (parent)
chain: MGESLFKGPRDYNPISSSICHLTNESDGHTTSLYGIGFGPFIITNKHLFRRNNGTLVVQSLHGVFKVKDTTTLQQHLVDGRDMIIIRMPKDFPPFPQKLKFREPQREERICLVTTNFQTKSMSSMVSDTSCTFPSGDGIFWKHWIQTKDGQCGSPLVSTRDGFIVGIHSASNFTNTNNYFTSVPKNFMELLTNQEAQQWVSGWRLNADSVLWGGHKVFMVKPEEPFQPVKEATQL

Variants of: B1
Experiment: raw area under fraction-flipped curve 0-4 h after induction (AUC4h, not background-subtracted), DNA-recorder readout of cleavage of the substrate (dimensionless); higher = more cleavage of the substrate by the protease variant
Settings: temperature: 34 °C; time window: 0-4 h after rhamnose induction
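Also: Bxb1 expression induced with 0.2% (w/v) L-rhamnose at OD600 near 0.5, cultures sampled hourly, flipped fraction per protease–substrate barcode pair counted by paired-end Illumina sequencing.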

Variant	area with substrate CNLYFQS	area with substrate GNLYFQS	area with substrate HNLYFQS	area with substrate INLYFQS	area with substrate KNLYFQS	area with substrate LNLYFQS	area with substrate MNLYFQS	area with substrate PNLYFQS	area with substrate QNLYFQS	area with substrate RNLYFQS	area with substrate VNLYFQS	area with substrate WNLYFQS	area with substrate SNLYFQS	area with substrate TNLYFQS	area with substrate YNLYFQS	area with substrate FNLYFQS	area with substrate NNLYFQS
V217S	0.0591	0.0516	0.0818	0.0644	0.0681	0.0511	0.0617	0.0689	0.0463	0.0617	0.0589	0.0612	–	–	–	–	–
V217F	0.101	0.0489	–	0.0406	–	0.082	–	–	–	–	–	0.0549	0.0726	0.0577	0.0575	–	–
V217I	0.0768	0.0742	0.0805	–	–	0.0523	–	0.067	0.0781	–	–	–	0.0815	0.0694	–	0.0461	0.0581
V217K	0.0516	–	0.0621	–	0.0756	–	0.0596	0.0448	–	–	0.0612	–	–	0.0704	0.058	0.0591	0.0664
V217Y	0.0624	–	0.0722	0.0632	–	0.0589	0.0464	0.0594	–	–	–	–	–	0.0568	0.0568	–	0.0725
V217T	0.0623	0.0508	0.0487	0.0539	0.059	–	0.0459	0.0588	–	–	–	0.0644	0.0665	0.0579	–	–	0.0613
M219N	0.0629	–	0.0529	–	0.0653	0.0586	0.0717	–	–	0.0551	–	0.0521	–	0.0737	–	–	–
P222K	0.0624	–	0.0554	0.0796	0.0602	–	–	–	0.0874	–	0.071	0.0525	0.0705	0.056	0.0594	–	0.0607
P228G	0.0731	0.0647	0.0629	0.068	–	–	0.0706	0.0694	–	–	–	–	–	0.0476	–	–	–
P228M	0.105	–	–	–	0.0627	0.0521	–	–	–	–	–	–	–	0.0607	0.0607	0.0623	0.0572
P228L	0.0739	–	–	0.0914	–	–	0.0676	0.0628	–	–	0.0745	–	–	0.0689	0.0703	–	–
P228K	0.086	0.0751	–	–	0.0769	–	–	0.0725	0.086	–	–	0.0464	–	0.06	0.0639	–	0.0833
E223S	0.0718	0.0638	0.0657	0.0631	0.0597	–	0.0663	0.0768	0.0714	–	0.062	0.0664	–	0.0604	0.0676	–	0.0834
E223V	0.0629	–	0.061	0.0715	–	–	–	–	–	–	–	–	–	0.064	–	0.0689	0.059
E223W	0.062	0.0413	0.0446	0.0616	0.0612	–	0.0713	–	–	–	–	0.064	–	0.0755	0.0867	0.0667	–
H215P	0.0842	0.0668	0.0558	0.0586	–	0.055	0.056	0.0537	0.077	–	–	0.055	–	0.0603	0.0567	–	–
F218W	0.0539	–	–	–	–	–	–	0.0706	0.0659	–	0.0788	–	–	0.064	0.0529	–	0.0496
F218M	0.0706	0.0694	–	–	–	–	0.0572	–	–	–	–	0.0665	–	0.0617	–	–	–
E224G	0.0603	–	0.0728	–	0.0787	0.0458	–	0.072	–	–	–	0.0457	0.0753	0.0653	–	–	0.0692

Variant	area with substrate CNLYFQS	area with substrate GNLYFQS	area with substrate HNLYFQS	area with substrate INLYFQS	area with substrate KNLYFQS	area with substrate LNLYFQS	area with substrate MNLYFQS	area with substrate PNLYFQS	area with substrate QNLYFQS	area with substrate RNLYFQS	area with substrate VNLYFQS	area with substrate WNLYFQS	area with substrate SNLYFQS	area with substrate TNLYFQS	area with substrate YNLYFQS	area with substrate FNLYFQS	area with substrate NNLYFQS
K221G	0.062	0.0769	0.0464	–	0.0561	0.0654	0.0655	–	–	–	–	0.0575	0.0608	0.05	0.0658	0.0616	0.0696
K221W	0.0577	–	–	0.0511	0.0865	0.0614	–	–	–	0.0564	–	–	–	–	–	0.0573	0.0632
F226R	0.0802	0.0656	–	0.066	0.0657	0.0603	0.0427	0.0791	–	–	0.0552	–	–	0.084	–	–	–
F226T	0.0422	–	0.0545	–	0.0714	–	–	–	–	–	–	0.0546	–	–	–	–	–
P225G	0.0777	–	0.0604	0.0604	–	0.0682	–	–	0.0591	–	–	0.0587	0.0746	–	–	0.0563	0.082
P225E	0.061	0.0532	–	0.0702	0.0668	0.0625	0.0572	–	–	–	–	–	0.0627	0.0648	0.0728	0.0622	0.0596
P225Q	0.0722	–	0.06	–	0.0639	0.0708	–	0.0892	–	–	–	0.0571	–	0.0853	0.0547	–	–
P225N	0.0811	0.0626	–	0.066	0.0678	0.0614	–	0.0662	–	–	0.0666	0.0574	0.0675	0.0452	0.0472	0.0554	–
P225H	0.0725	–	0.0555	0.066	–	0.0756	0.0551	–	–	–	0.0662	0.0607	0.0841	–	0.06	0.0525	–
P225M	0.0662	0.0687	0.0614	–	0.0657	0.0693	–	0.065	–	–	0.08	0.0556	0.0259	0.0705	–	0.0517	–
Q227C	0.103	–	0.0541	–	0.0797	0.0621	0.0697	–	–	–	0.064	0.0661	–	0.0559	–	0.0551	0.0603
G214P	0.0531	0.0549	0.0479	0.0537	–	0.0684	–	0.0648	–	–	–	0.0567	0.0523	0.0558	0.0317	–	–
G214R	0.0719	–	–	–	0.0628	0.0437	0.0632	–	–	–	–	–	–	–	–	0.0379	–
W212C	0.0512	–	–	–	0.085	0.0337	–	0.0714	–	–	–	0.0294	0.0949	0.0578	–	–	–
W212R	0.0588	0.0478	0.0542	–	–	0.0613	–	–	–	–	–	0.056	–	0.0687	–	0.0484	–
W212L	0.077	–	0.0719	–	0.0694	–	0.0677	0.0687	–	0.042	–	0.0498	0.0611	–	0.0622	–	0.007
W212P	0.0421	0.048	–	–	0.0543	–	–	–	–	–	–	0.0556	0.0563	–	–	0.0641	–
G213V	0.0175	–	0.0588	–	–	–	–	–	–	–	–	–	0.0654	0.0588	–	–	0.06
V229A	0.0711	–	–	0.0689	–	0.0683	–	0.0442	–	–	–	–	0.0427	0.0601	0.0452	–	0.0773
